Measured values taken from PubChem BioAssay AID488969 (Vanderbilt High Throughput Screening Facility, 2010).
Whole data set: some 110,000 compounds, median “z-score” near -0.1, cut for the highest 2% near 2. This is one part of the list. Activity calls are given as the source filed them.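 Rule for the calls: active = z-score in the third read window above 3 or below -3; inactive = the rest.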 Starred links: 1 amine or outer side, 2 acyl side, 3 side chain; linkers in the order of their positions; H or OH if unused. Residues, ends and D or L forms follow the SMILES beside them. *: point of attachment. Cbz = O=C(OCc1ccccc1)*; CO = O=C([*:1])[*:2]; NHPh = c1ccc(N*)cc1

Target: Metabotropic glutamate receptor 8 (Rattus norvegicus) (UniProt P70579)
Assay: mGluR8 Gi/Go-coupled signaling modulation – cell-based, rat, thallium flux, HTS, primary screen (AID 488969)
Settings: HEK293 rat mGluR8, GIRK (G protein-gated inwardly rectifying potassium channel) thallium flux, FluoZin2; at 10 µM; stronger effect = higher value; submaximal glutamate (EC20) added with thallium

Chain of UniProt P70579 (P70579 whole entry, looked up): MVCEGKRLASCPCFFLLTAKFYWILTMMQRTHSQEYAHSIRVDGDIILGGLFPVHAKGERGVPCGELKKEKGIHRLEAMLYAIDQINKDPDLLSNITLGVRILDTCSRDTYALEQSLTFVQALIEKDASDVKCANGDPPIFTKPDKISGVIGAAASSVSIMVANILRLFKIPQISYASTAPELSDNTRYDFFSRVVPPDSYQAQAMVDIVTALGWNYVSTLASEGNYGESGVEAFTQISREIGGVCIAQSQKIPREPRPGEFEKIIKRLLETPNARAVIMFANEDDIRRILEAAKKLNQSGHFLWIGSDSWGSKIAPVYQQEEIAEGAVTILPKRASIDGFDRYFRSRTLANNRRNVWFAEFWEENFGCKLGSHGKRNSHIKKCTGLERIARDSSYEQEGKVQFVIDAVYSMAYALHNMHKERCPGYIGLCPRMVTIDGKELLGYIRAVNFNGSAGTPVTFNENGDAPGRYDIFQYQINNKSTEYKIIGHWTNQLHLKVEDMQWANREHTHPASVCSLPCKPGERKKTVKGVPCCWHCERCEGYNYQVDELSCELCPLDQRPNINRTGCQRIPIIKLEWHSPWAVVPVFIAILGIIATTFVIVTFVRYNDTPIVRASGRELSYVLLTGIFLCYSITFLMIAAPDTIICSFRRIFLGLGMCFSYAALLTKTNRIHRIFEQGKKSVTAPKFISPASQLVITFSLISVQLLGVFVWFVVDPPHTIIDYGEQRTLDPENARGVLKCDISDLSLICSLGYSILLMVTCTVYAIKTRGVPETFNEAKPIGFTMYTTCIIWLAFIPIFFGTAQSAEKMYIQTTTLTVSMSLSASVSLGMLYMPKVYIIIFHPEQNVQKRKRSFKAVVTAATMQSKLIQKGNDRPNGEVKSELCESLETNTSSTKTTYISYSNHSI

| SMILES | z-score |
| --- | --- |
| Nc1cc(=O)[nH]c(SCc2nnnn2-c2ccc(Cl)cc2)n1 | -0.375 |
| CCOC(=O)CSc1ncc(OC)c(Sc2ccc(Cl)cc2)n1 | -0.173 |
| Cc1ccc(OC(=O)c2ccccc2P(=O)(O)O)cc1 | 0.0146 |
| O=C(Nc1cc([N+](=O)[O-])ccc1Cl)C(Sc1ccccc1)c1ccccc1 (stereo not given) | -0.165 |
| Cc1nn(C)c(C)c1S(=O)(=O)N1CCCC(C(=O)N2CCN(c3ccc(Cl)cc3)CC2)C1 (stereo not given) | 0.149 |
| CCOC(=O)C(NC(=O)c1ccccc1)=C1CCCCC1 | 1.21 |
| CC1CC2(NC(=O)NC2=O)C(C)CN1C (stereo not given) | -0.0766 |
| COc1ccc(OC)c(N/C(C)=C/C(=O)c2ccc(C)o2)c1 | 0.0767 |
| COc1ccc(NC(=O)/C(C#N)=C/C=C/c2ccco2)cc1 | -0.414 |
| CC1CCN(c2ccccc2NC(=S)NC(=O)c2cccs2)CC1 | 1.61 |
| C/C(=N\OC(=O)NC(C)C)c1sc(-c2ccc(Cl)cc2)nc1C | -0.551 |
| O=C(CCCn1c(=S)[nH]c2cc3c(cc2c1=O)OCO3)N1CCN(c2ncccn2)CC1 | 0.25 |
| O=C(CC1C(=O)NC2CCCCC2N1C(=O)c1ccc(F)cc1)Nc1ccccc1 (stereo not given) | -0.175 |
| COc1ccc(-n2cnnc2SCCC#N)cc1 | 0.0723 |
| O=C(Nc1cccc(-c2cc3ccccc3oc2=O)c1)c1ccc(Br)o1 | -0.101 |
| Nc1ccc(C(=O)N2CCCC2)cc1 | 0.864 |
| Cc1ccc(OCCn2cc(C(=S)N3CCCC3)c3ccccc32)cc1C | -0.0383 |
| O=C(Nc1ccc(N2CCCCC2)cc1)c1ccccc1 | -0.197 |
| COC(=O)c1ccc(SCc2cnc(Cl)s2)cc1 | 0.139 |
| COC(=O)C1=NN(C(C)=O)C2(CC(=O)N(c3cccc(C)c3)C2=O)C1 (stereo not given) | -1.5 |
| CC(C)(C)C(=O)NC(=S)Nc1cc(C(=O)O)ccc1Cl | -0.756 |
| Cc1cc(C)c(C#N)c(SCCS(=O)(=O)Cc2ccc(Cl)cc2)n1 | 0.179 |
| COC(=O)CNC(=O)CNC(=O)Nc1ccccc1 ({NHPh-CO}-Gly-Gly-OMe) | -0.494 |
| CCCc1noc2c1/C(=N\O)CC(c1ccccc1)C2 (stereo not given) | -0.153 |
| CCc1cc(=O)oc2cc(OCC(=O)O)c(Cl)cc12 | 0.51 |
| CCN=C1SC(C(=O)Nc2cccc(C)c2)CC(=O)N1CC (stereo not given) | -0.145 |
| COc1ccc(C2C(C#N)=C(N)Oc3n[nH]c(C)c32)cc1Cn1cc([N+](=O)[O-])cn1 (stereo not given) | -2.25 |

| SMILES | z-score |
| --- | --- |
| Cc1cc(O)c(C=Nc2ccc(Cl)cn2)c(=O)o1 | -0.0105 |
| COc1ccc(NCC(=O)N/N=C/c2ccc3c(c2)OCCO3)cc1 | -0.0641 |
| Cc1noc(C)c1S(=O)(=O)N1CCC(C(=O)Nc2ccc(OC(F)(F)F)cc2)CC1 | 0.264 |
| Cc1sc2ncnc(NCC3(N4CCOCC4)CCCCC3)c2c1C | -0.201 |
| CN(C(=O)/C(N=Nc1cccc(C(F)(F)F)c1)=C(\O)C(F)(F)F)c1ccccc1 | -0.183 |
| NC(=O)N1CC(O)CC1C(=O)Nc1ccc(Cl)c(Cl)c1 (stereo not given) | -0.279 |
| Cc1ccc(NCc2nc3ccccc3n2CCOc2ccccc2)cc1 | -0.0597 |
| CC(=O)NS(=O)(=O)c1ccc(NC(=S)NC(=O)c2ccco2)cc1 | -0.0158 |
| CCc1nc(SCC(=O)N2CCC(C)CC2)c2c(=O)n(C)c(=O)n(C)c2n1 | -0.364 |
| Clc1ccc(-c2nnc(NC3=NCCCCC3)o2)cc1 | 0.0658 |
| O=C(COc1ccccc1-c1ccccc1)Nc1ccc(S(=O)(=O)NCc2ccco2)cc1 | -0.157 |
| C=CCN1C(=O)C2(/C(=C(\O)c3ccc4c(c3)OCCO4)C(=O)C(=O)N2CCCOC)c2ccccc21 (stereo not given) | 0.102 |
| Cc1ccc(C(=O)NNC(=S)NC(=O)c2ccc(Cl)cc2)cc1 | active: 7.64 |
| CCOc1cc(C2/C(=C(/O)c3ccc(OC(C)C)cc3)C(=O)C(=O)N2CCCOC)ccc1O (stereo not given) | 0.645 |
| CCOC(=O)c1c(O)c2c([nH]c1=O)CCCC2 | -0.146 |
| O=C(Cn1nnc2ccccc2c1=O)N[C@@H](Cc1c[nH]c2ccccc12)C(=O)O | -0.161 |
| Cc1cccc(-n2c(O)c(/C=N/NC(=O)c3ccccc3Cl)c3ccccc3c2=O)n1 | active: 5.65 |
| O=C(CCCCCn1c(=S)[nH]c2ccc(N3CCOCC3)cc2c1=O)NCCc1ccccc1 | 0.0267 |
| O=C(CNC(=O)c1ccccc1)N/N=C/c1ccc([N+](=O)[O-])o1 | -0.0138 |
| Cc1c(NC(=O)CSc2nc(-c3ccco3)cc(C(F)(F)F)n2)c(=O)n(-c2ccccc2)n1C | -0.129 |
| COc1cc(S(=O)(=O)N2CCC(c3nc4ccccc4s3)CC2)ccc1S(=O)(=O)N1CC(C)CC(C)C1 (stereo not given) | 0.205 |
| CCOc1ccc(-n2cc(C(=O)Nc3ccc(Cl)cn3)c3cc(OC)c(OC)cc3c2=O)cc1 | -0.721 |
| CC(C)C1C(c2ccccc2)N(C)C(c2ccccc2)CC1(O)c1ccccc1 (stereo not given) | 1.25 |
| Cc1ccc(/C=C/C(=O)c2cc(Br)ccc2OC(=O)c2ccco2)cc1 | -0.117 |
| CN(Cc1ccccc1)c1nc(-c2ccc([N+](=O)[O-])cc2)nc2ccccc12 | -0.394 |
| Cc1cc(C)nc(NC(=O)NS(=O)(=O)N2CCCCCC2)n1 | 0.0342 |
| Oc1ccc(-c2[nH]nc(-c3ccccc3)c2-c2nc3ccccc3[nH]2)cc1 | -0.109 |

| SMILES | z-score |
| --- | --- |
| Cc1ccc(S(=O)(=O)CCC(=O)OCc2ccc(Cl)cc2)cc1 | -0.694 |
| Cc1nnc(SCC(=O)N/N=C/c2cc(Cl)c(O)c(Cl)c2)s1 | -0.388 |
| CCCCNC(=S)Nc1ccc(-c2nc3ccc(C)cc3s2)cc1 | -0.126 |
| CN(C)c1cccc(C(=O)NNC(=O)NC2CCCCC2)c1 | -0.554 |
| NC(=S)N=Nc1c(O)[nH]c2cc(F)c(F)cc12 | 1.16 |
| CC1CC(C)CN(CCCNC(=O)Cn2ncc3c(=O)oc4ccccc4c32)C1 (stereo not given) | -0.462 |
| CN(C)CC(C)(C)CNS(=O)(=O)CC12CCC(CC1=O)C2(C)C (stereo not given) | 0.137 |
| CCCc1nc2oc3c(NCCN(C)C)ncnc3c2c2c1CCCC2 | 0.466 |
| Cc1c(Cl)cccc1NC(=O)Nc1ccn(C)n1 | -0.296 |
| O=C(c1ccc(C#CC2(O)CCCCC2)cc1)N1CCN(Cc2ccccc2)CC1 | -0.528 |
| CN(C)c1ccc(NC(=O)COC(=O)Cn2nnc3ccccc32)cc1 | 0.25 |
| COC(=O)c1cc(=O)cc(C(=O)OC)o1 | 0.0127 |
| Cc1cccc2sc(NC(=O)C3CCCO3)nc12 (stereo not given) | -0.212 |
| FC(F)(F)c1ccc(/C=N/N2CCN(Cc3cccc4ccccc34)CC2)cc1 | 0.0424 |
| Cc1cc(C)n(Cc2ccc(Cl)cc2Cl)c(=O)c1S(=O)(=O)c1ccccc1 | -0.558 |
| O=C(NC(Cc1ccccc1)C(=O)N1CCN(c2ccccn2)CC1)c1ccco1 (stereo not given) | -0.0668 |
| O=C(Nc1ccccc1)c1cc([N+](=O)[O-])ccc1NCc1cccnc1 | -0.426 |
| CCOc1ccc(C2NC(=O)C(C#N)=C(S)N2c2ccc(C)cc2)cc1OC (stereo not given) | -0.229 |
| CCC(C)C(NC(=O)C(C)NC(=O)CNC(=O)CNC(=O)OCc1ccccc1)C(=O)OC (stereo not given) (Cbz-GGAI-OMe; configuration not given here) | 0.481 |
| O=C(COc1ccc(Br)cc1CO)Nc1ccccc1 | -0.336 |
| Cc1cccc(NC(=S)NC(=O)C(c2ccccc2)c2ccccc2)n1 | 0.232 |
| COc1cc2c(cc1NC(=O)/C=C/c1cc(OC)c(OC)c(OC)c1)oc1ccccc12 | -0.103 |
| Cc1cc(OCC(=O)C(C)(C)C)c2c(C)c(C)c(=O)oc2c1 | -0.653 |
| CCSc1nnc(NC(=O)c2cccc3ccccc23)s1 | -0.316 |
| CC(=O)Oc1ccc2c(=O)c(Oc3ccccc3)c(C)oc2c1OC(C)=O | -0.711 |
| COc1ccccc1NS(=O)(=O)c1ccc(NC(C)=O)cc1 | -0.372 |
| O=C(c1ccc(Cl)c(S(=O)(=O)NCc2ccco2)c1)N1CCN(c2ccc(F)cc2)CC1 | -0.13 |

| SMILES | z-score |
| --- | --- |
| O=C(Cc1cccs1)N1CCN(S(=O)(=O)c2ccccc2)CC1 | -0.183 |
| C=CCn1c(SCC(=O)NC2CCCc3ccccc32)nnc1-c1ccncc1 (stereo not given) | -0.128 |
| CCOC(=O)C1C(=O)NC(N2CCN(Cc3ccccc3)CC2)=NC1c1ccccc1 (stereo not given) | -0.912 |
| CCc1cc2ccc(C)cc2nc1SCC(=O)c1ccc(NC(C)=O)cc1 | -0.122 |
| CCOC(=O)CON1C(=O)c2ccccc2C1=O | 0.204 |
| O=C(Nc1nc(C2C3CC4CC(C3)CC2C4)cs1)c1cc2cc([N+](=O)[O-])ccc2oc1=O (stereo not given) | -0.372 |
| CC(=O)OCC(=O)N1CCN(c2ccc([N+](=O)[O-])cc2)CC1 | 0.0825 |
| CN(CC(=O)NC(=O)NCc1ccccc1)Cc1ccc(Cl)cc1 | -0.334 |
| CCC(=O)NC(Nc1sc2c(c1C(=O)OC)CCC2)C(Cl)(Cl)Cl (stereo not given) | -0.602 |
| COc1ccc(/C=N/NC(=O)c2ccc(COc3ccccc3Cl)o2)c(OC)c1C | -0.172 |
| Cc1ccc(N(C(=O)CNC(=O)c2ccco2)C(C(=O)NC2CCCC2)c2cccnc2)cc1C (stereo not given) | -0.146 |
| Cc1ccccc1-n1nc2c(c1NC(=O)c1cc3ccccc3oc1=O)CS(=O)C2 (stereo not given) | -1.54 |
| CCCC(=O)Nc1ccccc1-c1nnc(SC)[nH]c1=O | 0.00221 |
| O=C(N/N=C\c1cn[nH]c1-c1ccccc1)c1cccnc1 | 0.0508 |
| Cc1c(Cl)c([N+](=O)[O-])nn1CCCC(=O)Nc1cccc(Cl)c1Cl | -0.213 |
| O=C(Nc1cc(C(F)(F)F)ccc1N1CCCCC1)c1ccco1 | -0.156 |
| Cc1ccc(-c2cc(C(F)F)n3ncc(C(=O)N4CCCc5ccccc54)c3n2)cc1 | -0.0629 |
| O=C(NCC1CCCO1)C(=O)NCC(c1ccco1)N1CCN(c2ccccc2F)CC1 (stereo not given) | -0.438 |
| Cc1ccc2c(c1)C(C)CC(C)(C)N2C(=O)NC1CCCCC1 (stereo not given) | -0.123 |
| O=C(Nc1ccccc1Cl)N1CCN(c2ccc3nnc(-c4ccc(F)cc4)n3n2)CC1 | -0.852 |
| O=C(Cn1nc(-c2ccc(Cl)cc2)c2ccccc2c1=O)Nc1cccnc1 | -0.258 |
| O=C(CN(C(=O)Cn1nnc(-c2ccccc2F)n1)c1cccc2c1CCCC2)NCc1ccccc1 | -0.366 |
| O=C1CCCc2c1cc(C(=O)NCCCN1CCOCC1)c(=O)n2-c1ccc(Cl)cc1 | 0.187 |
| N#Cc1ccc(Oc2ccc(-c3cnc4ccccc4n3)cc2)cc1C#N | -0.166 |
